Measured values from the supplement of paper PMC10320760.
The data scatter; read single values as rough.

B1: Ydj1; a variant is named by its letters at X, in order (parent)
chain: MVKETKFYDILGVPVTATDVEIKKAYRKCALKYHPDKNPSEEAAEKFKEASAAYEILSDPEKRDIYDQFGEDGLSGAGGAGGFPGGGFGFGDDIFSQFFGAGGAQRPRGPQRGKDIKHEISASLEELYKGRTAKLALNKQILCKECEGRGGKKGAVKKCTSCNGQGIKFVTRQMGPMIQRFQTECDVCHGTGDIIDPKDRCKSCNGKKVENERKILEVHVEPGMKDGQRIVFKGEADQAPDVIPGDVVFIVSERPHKSFKRDGDDLVYEAEIDLLTAIAGGEFALEHVSGDWLKVGIVPGEVIAPGMRKVIEGKGMPIPKYGGYGNLIIKFTIKFPENHFTSEENLKKLEEILPPRIVPAIPKKATVDECVLADFDPAKYNRTRASRGGANYDSDEEEQGGEGVQCXXX

Variants of: B1
Test: enrichment factor, frequency at 37 °C / frequency at 25 °C (thermotolerance selection) (ratio); higher = more growth at 37 °C, higher likelihood of farnesylation
Conditions: with Saccharomyces cerevisiae ydj1Δ (yWS304); selective temperature 37 °C; reference temperature 25 °C
Procedure: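 Pooled library of all 8,000 Ydj1-CXXX C-terminal motif variants (native CASQ replaced by C + three variable residues, one codon per amino acid) expressed from a CEN plasmid in S. cerevisiae ydj1Δ (yWS304). The library was grown in SC-Ura liquid to A600 ~2 (~8 generations) at permissive 25 °C or selective 37 °C. Reads from 8 and 7 replicates were pooled and variants counted by NGS. Enrichment factor = frequency at 37 °C / frequency at 25 °C, with a +1 correction; it reports Ydj1-dependent thermotolerance, used as a read-out of farnesylation by yeast FTase.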

Variant	enrichment factor
VKT	0.132
VKV	0.399
VKS	0.896
VKW	0.189
VKY	0.132
MKV	0.118
MKT	0.146
MKW	0.121
MKY	0.142
MLF	0.965
MLH	1.74
MLN	2.24
MLK	1.69
MLA	2.11
MLM	0.55
MLE	1.58
MLI	1.25
MLD	1.41
MLL	0.892
MLC	1.28
MLG	2.15
AKT	0.168
AKW	0.197
AKV	0.173

Variant	enrichment factor
AKY	0.178
DLG	1.33
DLL	1.2
DLH	1.57
DLD	1
DLI	0.986
DLM	1.16
DLK	0.153
DLF	1.85
DLE	0.628
DLC	1.35
DLN	1.72
DLA	1.53
FLK	0.692
FLG	3.31
FLL	1.95
FLE	1.48
FLF	0.772
FLC	1.49
FLI	1.01
FLA	1.45
FLD	1.7
FLM	2.03
FLH	3.38

Variant	enrichment factor
FLN	3.47
FLP	3.8
RKT	0.202
RKW	0.131
RKY	0.151
RKV	0.118
RKS	0.146
PLG	1.09
PLM	0.761
PLD	1.71
PLN	1.36
PLF	0.965
PLC	0.819
PLK	1.82
PLI	0.745
PLA	1.13
PLE	1.81
PLH	1.61
PLL	1
ELF	0.975
ELM	2.25
ELD	1.49
ELG	1.41
ELL	1.36

Variant	enrichment factor
ELK	1.62
ELP	0.132
ELI	1.13
ELA	3.47
ELC	2.38
ELH	2.03
ELE	1.38
ELN	1.05
LKT	0.09
LKW	0.101
LKV	0.152
LKY	0.25
NKV	0.159
NKW	0.145
NKY	0.162
NKT	0.233
SKY	0.128
SKS	0.138
SKW	0.169
SKV	0.141
SKT	0.147
RLF	1.05
RLD	1.14
RLG	0.993

Variant	enrichment factor
RLI	0.739
RLC	0.613
RLN	2.14
RLA	1.47
RLK	1.24
RLM	0.997
RLH	3.36
RLE	1.56
RLL	0.772
IKV	0.19
IKT	0.106
IKW	0.155
IKY	0.161
KKT	0.0628
KKV	0.232
KKY	0.0965
KKW	0.145
WKT	1.19
WKS	0.892
WKW	0.823
WKV	1.26
WKY	0.861
GLM	1.19
GLA	1.57

Variant	enrichment factor
GLL	1.22
GLH	1.4
GLG	1.18
GLD	1.37
GLE	1.38
GLP	0.255
GLK	0.593
GLI	1.12
GLC	0.443
GLN	1.92
GLF	3.94
WLD	2.05
WLC	1.25
WLK	0.364
WLA	1.59
WLF	1.74
WLL	1.66
WLI	2.25
WLG	2.51
WLE	1.93
WLN	0.441
WLM	0.386
WLH	3
DKV	0.189

Variant	enrichment factor
DKY	0.283
DKS	0.138
DKT	0.157
DKW	0.121
QLA	2.68
QLL	1.25
QLD	3.58
QLF	2.43
QLK	1.45
QLG	2.36
QLM	1.5
QLI	1.19
QLH	2.53
QLC	1.02
QLN	3.35
QLE	2.12
ILN	1.85
ILL	1.84
ILD	1.97
ILK	2.67
ILP	0.174
ILG	1.85
ILE	1.32
ILA	1.08

Variant	enrichment factor
ILH	2.46
ILI	1.12
ILM	1.23
ILC	0.745
CLM	0.752
CLI	0.537
CLG	0.989
CLN	1.02
CLK	0.906
CLC	0.746
CLL	1.02
CLA	0.824
CLD	1.64
CLH	1.63
CLE	1.45
CLF	0.802
EKY	0.0724
EKT	0.181
EKV	0.128
EKW	0.117
QKW	0.147
QKV	0.131
QKY	0.169
QKT	0.132

Variant	enrichment factor
PKT	0.109
PKV	0.258
PKW	0.131
PKY	0.144
ALM	1
ALK	2.03
ALH	2.82
ALI	0.892
ALC	0.874
ALP	0.273
ALE	1.88
ALA	0.579
ALL	0.873
ALG	2.15
ALN	1.77
ALD	1.18
ALF	1.87
HKW	0.173
HKV	0.153
HKY	0.121
HKT	0.203
SLN	1.4
SLI	0.97
SLF	1.02

Variant	enrichment factor
SLM	0.634
SLG	1.59
SLC	1.27
SLL	0.59
SLA	1.1
SLK	1.54
SLE	1.87
SLD	2.33
SLH	2.44
KLH	0.811
KLN	2.51
KLE	1.52
KLL	1.54
KLI	0.901
KLA	1.77
KLC	0.314
KLK	1.3
KLG	1.03
KLD	1.4
KLF	0.842
KLP	0.138
KLM	1.03
YLL	2.2
YLE	1.9

Variant	enrichment factor
YLG	2.55
YLF	1.45
YLM	1.16
YLK	1.88
YLC	1.43
YLA	0.651
YLI	3.47
YLD	2.73
YLH	3.05
YLN	1.39
CKY	0.175
CKW	0.146
CKV	0.6
CKT	0.183
NLG	1.3
NLH	1.82
NLN	2.7
NLK	1.26
NLD	1.88
NLM	1.11
NLE	1.87
NLC	0.521
NLA	1.19
NLL	0.982

Variant	enrichment factor
NLF	2.51
NLI	0.965
YKV	0.18
YKT	0.252
YKY	0.166
YKW	0.178
YKS	0.126
VLI	0.835
VLA	1.33
VLK	1.44
VLM	0.977
VLF	0.846
VLC	0.788
VLH	1.44
VLL	0.796
VLN	1.31
VLE	3.22
VLD	1.33
VLG	0.858
HLK	1.83
HLH	2.23
HLC	0.934
HLE	2.9
HLG	1.39

Variant	enrichment factor
HLP	2.76
HLL	1.85
HLN	1.21
HLF	1.35
HLD	2.45
HLM	0.662
HLI	2.14
HLA	3.13
TKW	0.139
TKY	0.0789
TKT	0.162
TKV	0.159
TKS	0.279
LLD	1.56
LLK	1.56
LLM	1.72
LLE	1.52
LLF	1.06
LLP	0.215
LLC	1.21
LLH	2.79
LLA	1.51
LLG	2.08
LLL	1.11

Variant	enrichment factor
LLI	0.827
LLN	2.08
GKW	0.186
GKT	0.151
GKV	0.0724
GKY	0.193
TLF	3.35
TLM	0.799
TLC	0.673
TLN	1.58
TLH	1.59
TLL	0.654
TLA	0.519
TLK	2.03
TLI	1.2
TLE	1.86
TLG	1.61
TLD	1.84
FKT	1.13
FKY	0.159
FKW	0.184
FKV	1.42
